# According to publication PMC10363979, “Effects of bergapten on the pharmacokinetics of macitentan in rats both in vitro and in vivo” (Frontiers in Pharmacology, 2023):
# B1: recombinant human CYP3A4 (rCYP3A4) (Homo sapiens) (protein)
# chain: MALIPDLAMETWLLLAVSLVLLYLYGTHSHGLFKKLGIPGPTPLPFLGNILSYHKGFCMFDMECHKKYGKVWGFYDGQQPVLAITDPDMIKTVLVKECYSVFTNRRPFGPVGFMKSAISIAEDEEWKRLRSLLSPTFTSGKLKEMVPIIAQYGDVLVRNLRREAETGKPVTLKDVFGAYSMDVITSTSFGVNIDSLNNPQDPFVENTKKLLRFDFLDPFFLSITVFPFLIPILEVLNICVFPREVTNFLRKSVKRMKESRLEDTQKHRVDFLQLMIDSQNSKETESHKALSDLELVAQSIIFIFAGYETTSSVLSFIMYELATHPDVQQKLQEEIDAVLPNKAPPTYDTVLQMEYLDMVVNETLRLFPIAMRLERVCKKDVEINGMFIPKGVVVMIPSYALHRDPKYWTEPEKFLPERFSKKNKDNIDPYIYTPFGSGPRNCIGMRFALMNMKLALIRVLQNFSFKPCKETQIPLKLSLGGLLQPEKPVVLKVESRDGTVSGA
# notes: made in house
# Substrate: CCCNS(=O)(=O)Nc1ncnc(OCCOc2ncc(Br)cn2)c1-c1ccc(Br)cc1
# Assay: Inhibition of macitentan metabolism (ACT-132577 formation) by bergapten and Michaelis-Menten kinetics in recombinant human CYP3A4
# Assay type: in vitro ADME
# Conditions: other: rCYP3A4
# Method: The concentrations of macitentan and ACT-132577 were determined by UPLC-MS/MS, which consisted of an Acquity I-class UPLC system (Waters Corp., Milford, MA, United States) and a Xevo TQD triple quadrupole mass spectrometer (Waters Corporation, Milford, MA, United States) equipped with an electrospray ionization source. Chromatographic separation was performed on an Acquity UPLC BEH C18 column (2.1 × 100 mm, 1.7 μm) at 40°C. The mobile phase was composed of acetonitrile (solvent A) and water containing 0.1% formic acid (solvent B, pH 2.74). The gradient condition of mobile phases was set with a flow rate of 0.4 mL/min as follows: 0–0.5 min, 20% A; 0.5–1 min, 70% A; 1–2 min, 95% A; 2–2.6 min, 20% A. Positive ion and selective multiple reaction monitoring (SRM) modes were used for quantitative analysis with the precursor to product ion transitions of m/z 588.9→203.4 for macitentan, 546.9→200.6 for ACT-132577, and 285.0→193.0 for diazepam. The cone voltage and collision voltage were 28V, 14 V for macitentan, 26V, 28 V for ACT-132577, and 35V, 30 V for diazepam. The mass spectrometry parameters of the source temperature, desolvation temperature, cone gas flow rate, and desolvation gas flow rate were 150°C, 500°C, 50 L/h, and 1000 L/h, respectively.
# The effects of BP on macitetan metabolism in vitro were investigated using RLMs, HLMs, and rCYP3A4. […]
protein,measurement,value
B1,Km,13.14 µM
same,Vmax,2.32 nmol/min/mg protein
